Test results: the supplement of paper PMC12632987
The full ranking holds about 4,500 sequences; the median of “median log2 fold change of GCK-ALFA target abundance (FLAG IP / Myc IP barcode read proportion)” is about 0.078, and the lowest 2% start at about -0.6. This is one part of the list.

B1: GBRAP_128_3314 (protein)
chain: MDEERLEEAREIVERMKEADLEELAELTRRLAELLGTLTPEERDIVAEIFREGLKELSAEKLDVVADVLREVRPSLDPETANVVADLEVEALNEAVEKEE
B2: GBRAP_80_6768 (protein)
chain: MEKEIEKVLKEIEKLDKEVAEKLKEAVELAKKLGISLERILELVEAILELTKLDKEKALEIVKELVEALKEALKEGNKDKAVAELAGYISDALLAVEELE
B3: GBRAP_52_6354 (protein)
chain: MKERMKEIVDRLVALKKAGDEEGLRAEAREIVATLSDEELRLLFEELAEKAKESDPETAEALFEVAEVLEREMLEAGRDEFEASALLSDVGKAVYENLQK
B4: GBRAP_177_5010 (protein)
chain: SRLAEIEAAADDPEALLALVAATDLRELSREELLALLRALARAIAREGPRPELLEAAVRVAVALITDHGVSLAEVVAILIEHADPDTVEEVVERVAERLA
B5: GBRAP_160_4506 (protein)
chain: SSKYKEAAKVAEDAAKFIEEAKDTESREELAVVVAGEAGRVILEADELGVLSDEELDAFDEESRALVETILTGDEETAKAAVDEAIKMFKDLAKKLKKKA
B6: GBRAP_166_4931 (protein)
chain: SLEEIYEQAKKEVNELAEKAKTANDEELIELALEIRDILEEAKKKGLSPEQLKDILLEALSLLKDNPEKALFLLNMIEAAAGDDEELIDVIDRAKEEFLA
B7: GBRAP_160_4556 (protein)
chain: MEAAKEELEEIRELLEEAIELAKDLNPEEILILARGTLGEVIMLAFSSPHFTEEMEEALIEAADEIEERLEAAVDKNREEVVAVFREGAEALIKRLEELL
B8: GBRAP_128_3372 (protein)
chain: VDEEALARVRELGERMAEADVETAERLAEEIVRHLGTLDRETAEAAVEILKELLPKLSAEKLDVLADVIRRLRPTLDPYIASLLNELEVEALNEAEEKEE
B9: GBRAP_48_5822 (protein)
chain: MHMDEEELEELVEETVEEMKEIYEEAKKAGLSREEILKMIKAELGDLALELEEAGYTKAADYLLDPKNRDELATKLLEFFEEGKYEEAKEYLLEELRKAE
B10: GBRAP_78_6682 (protein)
chain: KVEEELDKAIEHLGKAAKILNKMGTEEALDLLGEVIDAAATVWEAHEGEADLKELEEALKKLKEALKRAKKIPTEEAKEAAKHLEEAIKHLEEAIKLLKK
B11: GBRAP_14_3772 (protein)
chain: MEEKEKILREEAAEIVELLAELAPEKAAAFRAAVDEVTEETIEEIRRTGNAFEAVEKGEERLVARIREITADLPPELQAEALAVVRVGYGEALLEIDELE
B12: GBRAP_39_5705 (protein)
chain: EREEEAEELFSYYEAEGAKYAVEEGLDEEEVRERTRELAERLSERYPELAPLVREALELAEKKGILAVLALLGLLLAAERGRPPEELREDLELLIEYLKS
B13: GBRAP_9_7129 (protein)
chain: REELIERLAEIVKDMIEDIAKVVPELTEEMKEKFLERVEALKKELLEDKNATPEEIAERFKELVEEIREEVKKIVNEEEKKLVDAIALTALVEIDEVVEE
B14: GBRAP_160_4852 (protein)
chain: EEKLKKALELIEEAEEEILELVDEVDVETLAAFFRAEVGRVIYEMETELNASDELLDKLDEIADETVEELLANPDLSVEERKELIREAFEKMKEAVKELS
B15: GBRAP_83_6920 (protein)
chain: KEEITVAANDDHIEEAAEAAIDLHKEEGYEVSLEFLITRESIPKLLKAFEKIAKAGVELELEILAYGVTEEEAEELKKELEEIAKKYGVKAKVEVEAIEP
B16: GBRAP_137_3629 (protein)
chain: ATVTIEVRHYEDVTEITVTLEDAALAEAVEELVLDVAHEHGALAVSVERDEDGTLTVEVWVPRERAQALLDALVRRLQEELGLRVRVRDLDTGEVREFTP
B17: GBRAP_11_2892 (protein)
chain: KEEKLKEAAELAKKLVELLKKLLEEGVDNEELLEEALKQAEKLLKLAKEYLDEATKKDVEIVLELVKKAKEDPENREQYAEEALAAARVLEGNLLLELEE
B18: GBRAP_128_3255 (protein)
chain: MNPEVVKYATEKVEKIKNSDAAEAAKIADDFMKWLKESSLEDAEQAVEVVEKRLGELSAEKLDILADAARKHLPEFSPEKANLVAGLEVEALNEAEEKEE
B19: GBRAP_160_4404 (protein)
chain: KEEFEKLKKEVKEIIEETKKLIEGETPEQRKVIIRVMIGDIILAAEENPAVTDEQEEEIDEILDEKLEKILAAVDEGLEAVKEELDELEEELEELIEEYE

These binders were tested against GABARAP, O95166 (assay: median log2 fold change of GCK-ALFA target abundance (FLAG IP / Myc IP barcode read proportion) (log2 ratio); each designed protein is fused to an ALFA-tag nanobody in HEK293 cells to bring the named protein to FLAG-tagged glucokinase (GCK); Myc marks an untargeted standard; higher = target protein stabilised (more abundant)). Conditions: target protein: 3xFLAG-MCP-GCK-ALFA reporter; HEK293 landing pad (RPLP).
Chain of GABARAP, O95166 (O95166 whole entry, the tested form may be a part): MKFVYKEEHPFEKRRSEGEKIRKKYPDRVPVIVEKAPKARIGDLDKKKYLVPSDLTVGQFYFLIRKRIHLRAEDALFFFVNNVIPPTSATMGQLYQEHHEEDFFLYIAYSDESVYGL
How it was run: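 Sequencing of reverse-transcribed, amplified circular RNA barcodes from anti-FLAG and anti-Myc immunoprecipitates provided the readout for an ALFA-nanobody-fused binder library recombined into HEK293 landing-pad cells. Those cells were induced with 2 μg mL^−1 doxycycline, transfected with a plasmid expressing a FLAG-tagged target and a Myc-tagged standard, and lysed after 48 h. Target abundance is the per-binder median log2 ratio of FLAG to Myc barcode read proportions. Only barcodes at a proportion of ≥10^−7 in both replicates and binders with ≥3 barcodes per replicate were kept, with a 10^−6 pseudocount added before the two replicates were pooled.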
B1 was tested, and the “median log2 fold change” value was 0.162. In the case of B2, the “median log2 fold change” value is reported as -0.0595. For B3, the “median log2 fold change” value was 0.137. In the case of B4, the “median log2 fold change” value is reported as 0.0662. In the case of B5, the “median log2 fold change” value is reported as 0.026. For B6, the “median log2 fold change” value was 0.203. In the case of B7, the “median log2 fold change” value is reported as -0.36. For B8, the “median log2 fold change” value was 0.184. With B9 the “median log2 fold change” value was 0.0591. B10 was tested, and the “median log2 fold change” value was -0.179. For B11, the “median log2 fold change” value was 0.004. With B12 the “median log2 fold change” value was 0.042. In the case of B13, the “median log2 fold change” value is reported as 0.168. B14 was tested, and the “median log2 fold change” value was -0.441. With B15 the “median log2 fold change” value was 0.00635. For B16, the “median log2 fold change” value was -0.0573. With B17 the “median log2 fold change” value was -0.148. In the case of B18, the “median log2 fold change” value is reported as 0.0207. For B19, the “median log2 fold change” value was -0.346.
